57 compounds from US20090143279A1 (priority 2007, published 2009) can be followed below.

SMILES strings stand for the structures. Structures can show the parent of a compound that is named as a salt. Where two headings read alike, the source gives them in different places. Where a SMILES comes first, the peptide text is derived from it.

The subject of the test is cellular ATP levels. The settings on record: for ATP (composite Z-score): normalized score vs mock-treated (DMSO) wells.
Where [1] appears, read: normalized composite Z-score vs mock-treated (DMSO) wells, Conc 20 μM.
[2] abbreviates: composite Z-score vs mock-treated (DMSO) wells, Conc 20 μM.
The mark [3] stands for this setting: composite Z-score vs DMSO, Conc 20 μM.
Setting [4] is: composite Z-score vs DMSO wells, Conc 20 μM.
[5] abbreviates: 20 μM, composite Z-score vs DMSO.

Turning to `COC(=O)C[C@H]1C(C)(C)C2(O)OC34CC2C(=O)[C@]1(C)C3CC[C@]1(C)C4=CC(=O)O[C@H]1c1ccoc1` (stereo partly drawn) [8beta-hydroxycarapin, 3,8-hemiacetal], the “ATP (composite Z-score)” value (Conc 20 μM) is −0.147.

On to `CC[C@@]1(O)C(=O)OCc2c1cc1n(c2=O)Cc2cc3cc(O)ccc3nc2-1` [10-hydroxycamtothecin], for which the “ATP (composite Z-score)” value (Conc 20 μM) is 0.468.

On to `CC(=O)O[C@H]1CC[C@]2(C)[C@H]3C(=O)C=C4[C@@H]5[C@@H](C)[C@H](C)CC[C@]5(C(=O)O)CC[C@@]4(C)[C@]3(C)CC[C@H]2C1(C)C` [11-oxoursolic acid acetate], for which, under setting [1], the ATP is on record as −1.477.

Consider `C=C1CCC=C(C)C(=O)CC2C(C)CC12` (stereo not drawn) [15-norcaryophyllen-3-one], for which the ATP under setting [1] is given as 0.833.

On to `CC(C)c1ccc2c(c1)CCC1[C@](C)(CN)CCC[C@]21C.O=S(=O)(O)O` (stereo partly drawn) [18-aminoabieta-8,11,13-triene sulfate], for which the “ATP (composite Z-score)” value (Conc 20 μM) was 0.999.

Take `CC(C)c1c(O)ccc2c1CC[C@H]1[C@@](C)(CO)CCC[C@]21C` [19-hydroxytotarol]: under setting [2], the ATP was 0.803.

Under setting [3], `Oc1ccc([C@H]2Oc3cc(O)cc(O)c3C[C@H]2O)cc1` [(2R,3R)-(−)-epiafzelechin] came in with an ATP of 0.986.

`COc1ccc([C@@H](C)C(=O)c2ccc(O)cc2O)cc1` [(R)-angolensin] came in with an ATP under setting [2] of 1.320.

`COc1ccc(C[C@H]2NC[C@H](O)[C@H]2OC(C)=O)cc1` [Anisomycin, reference compound] showed an ATP (composite Z-score vs DMSO, Conc 15.08 μM) of −1.426.

As for `C[C@@H]1C[C@@H]([C@H](O)CC2CC(=O)NC(=O)C2)C(=O)[C@@H](C)C1` [Cycloheximide, reference compound], the ATP is, setting by setting: (composite Z-score vs DMSO, Conc 14.22 μM) −1.021; under setting [3], −0.704.

On to `Cc1c(O)c(O)cc2c1CC=C1[C@@]2(C)CC[C@@]2(C)[C@@H]3C[C@](C)(C(=O)O)CC[C@]3(C)CC[C@]12C` [Dihydrocelastrol, reference compound], for which the ATP under setting [1] was −2.447.

For the compound `C[C@H](N)CO` [I-alaninol], the ATP under setting [3] came to 0.737.

Compound `CC(C)C[C@H](N)C(=O)N[C@@H](C)C(=O)O` [L-leucyl-L-alanine] (H-Leu-Ala-OH) returned an ATP under setting [3] of 0.475.

In the case of `O[C@H]1[C@H]2c3cc4c(cc3CN3CCC(=C[C@@H]1O)[C@H]23)OCO4` [Lycorine, reference compound], the ATP under setting [3] stood at 0.198.

In turn, `NCCNC(=O)c1ccc(Cl)cc1` [N-(2-aminoethyl)-4-chlorobenzamide] showed an ATP under setting [4] of 0.830.

For the compound `CC(=O)N[C@H]1[C@H]([C@@H](O)[C@@H](O)CO)O[C@@](O)(C(=O)O)C[C@@H]1O` [N-acetylneuramic acid], the ATP under setting [4] came out at 0.869.

Under setting [4], `CSCC[C@H](NC=O)C(=O)N[C@@H](CC(C)C)C(=O)N[C@@H](Cc1ccccc1)C(=O)O` [N-formylmethionyl-leucylphenylalanine] yielded an ATP of 2.059.

Regarding `OCCN1CCN(CCCN2c3ccccc3Sc3ccc(Cl)cc32)CC1` [Perphenazine, reference compound], the “decrease of ATP levels” value (20 μM, 8 h) amounted to 11% and the “decrease of ATP levels” value (20 μM, 24 h) came out at 27%.

Turning to `C=C1[C@@H]([C@@]2(C)[C@@H](OC(C)=O)CC(=O)O[C@](C)(COC(C)=O)[C@@H]2C(=O)OC)[C@@H](OC=O)[C@H](OC(=O)[C@H](O)[C@H](C)CC)[C@@]2(C)[C@H](c3ccoc3)CC(=O)[C@]12O` [Prieurianin, reference compound], under setting [2], the ATP is reported as 2.125.

In the case of `COc1ccc(C[C@H](N)C(=O)N[C@H]2[C@@H](O)[C@H](n3cnc4c(N(C)C)ncnc43)O[C@@H]2CO)cc1` [Puromycin, reference compound], the ATP under setting [3] is recorded as −7.962.

Under setting [3], `N[C@@H](CCC(=O)N[C@@H](CSC(CC(=O)O)C(=O)O)C(=O)NCC(=O)O)C(=O)O` (stereo partly drawn) [S-(1,2-dicarboxyethyl)glutathione] yielded an ATP of −0.160.

For `C=C/C(C)=C\CC1C(C)(O)CCC2C(C)(C)CCCC21C` (stereo not drawn) [abienol], the ATP under setting [1] stood at 1.677.

In turn, `CCCC(=O)Nc1ccc(OCC(O)CNC(C)C)c(C(C)=O)c1` (stereo not drawn) [acebutolol] registered an ATP under setting [4] of 0.310.

Take `CC(=O)Nc1ccc(OC(=O)c2ccccc2O)cc1` [acetaminosalol]: the ATP under setting [4] is 1.128.

`COc1cc(C(C)=O)cc(OC)c1O` [acetosyringone] gave an ATP under setting [3] of 0.040.

`CC(=O)Nc1c(I)cc(I)c(C(=O)O)c1I` [acetriazoic acid] registered an ATP under setting [3] of −0.024.

`CC(=O)O[C@H](CC(=O)[O-])C[N+](C)(C)C` [acetylcarnitine] yielded an ATP under setting [4] of 0.681.

With `CC(=O)OCC[N+](C)(C)C` [acetylcholine], the ATP under setting [5] is reported as −0.013.

Consider `CC(=O)Oc1ccccc1C(=O)Oc1ccccc1C(=O)O` [acetylsalicylsalicylic acid], for which the “ATP (composite Z-score)” value (Conc 13.32 μM) is 1.663.

Regarding `CCN1C[C@]2(COC)[C@H](O)C[C@H](OC)[C@@]34[C@@H]5C[C@@]6(O)[C@H](OC(=O)c7ccccc7)[C@@H]5[C@@](OC(C)=O)([C@@H]([C@H](OC)[C@H]23)[C@@H]14)[C@@H](O)[C@@H]6OC` [aconitine], the ATP under setting [3] is recorded as 0.350.

As to `CC[C@@]1(O)C[C@H](O[C@H]2C[C@H](N(C)C)[C@H](O)[C@H](C)O2)c2c(cc3c(c2O)C(=O)c2c(O)cccc2C3=O)[C@H]1C(=O)OC` [aklavine], the ATP under setting [4] was −8.498.

Under setting [4], `NC(=O)c1ccc([N+](=O)[O-])cc1Cl` [aklomide] displayed an ATP of 1.316.

In turn, `CCCCC(CC)CNC(=N)NC(=N)NCCCCCCNC(=N)NC(=N)NCC(CC)CCCC` (stereo not drawn) [alexidine] displayed an ATP of −5.106. In addition, the ATP under setting [5] is −1.715.

Take `C[C@H](CCC(=O)O)[C@H]1CC[C@H]2[C@@H]3CC[C@H]4C[C@H](O)CC[C@]4(C)[C@H]3C[C@H](O)[C@]12C` [allodeoxycholic acid]: under setting [3], the ATP is −1.212.

As for `Oc1ncnc2[nH]ncc12` [allopurinol], the ATP under setting [5] was found to be 1.218.

The compound `N#CC(=Cc1cccc(O)c1)C(=O)O` [alpha-cyano-3-hydroxycinnamic acid] yielded an ATP under setting [5] of −0.225.

Turning to `CC(=O)Oc1c(C)c(C)c2c(c1C)CCC(C)(CCCC(C)CCCC(C)CCCC(C)C)O2` (stereo not drawn) [alpha-tochopheryl acetate], under setting [5], the ATP is reported as 0.293.

Consider `COc1cc2c(cc1OC)[C@@H]1C(=O)c3c(O)cc4c(c3O[C@@H]1CO2)C=CC(C)(C)O4` [alpha-toxicarol, reference compound], for which the ATP is −2.946 (Table 4, C2C12 myotubes, 48 h, composite Z-score) and −2.946 under setting [3].

`COc1cc(OC)c2c(c1)OC(c1ccccc1)CC2=O` (stereo not drawn) [alpinetin methyl ether]: for the setting “Conc 20 μM”, the “ATP (composite Z-score)” value was 0.801.

On to `CCN(CCCc1ccccc1)CCCc1ccccc1` [alverine citrate], for which, under setting [3], the ATP is recorded as −2.140.

For the compound `NCC[C@H](O)C(=O)N[C@@H]1C[C@H](N)[C@@H](O[C@H]2O[C@H](CN)[C@@H](O)[C@H](O)[C@H]2O)[C@H](O)[C@H]1O[C@H]1O[C@H](CO)[C@@H](O)[C@H](N)[C@H]1O` [amikacin], the ATP under setting [3] is −0.527.

`Nc1ccc(C(=O)NCC(=O)O)cc1` [aminohippuric acid]: the ATP runs as follows: under setting [5], 0.226; (20.6 μM, composite Z-score vs DMSO) 0.957.

Compound `Cc1ccc(/N=C/N(C)/C=N/c2ccc(C)cc2C)c(C)c1` [amitraz] yielded an ATP under setting [3] of 0.305.

On to `CCN(CC)Cc1cc(Nc2ccnc3cc(Cl)ccc23)ccc1O` [amodiaquine], for which the ATP under setting [5] is recorded as −0.270.

In turn, `C[C@@H]1[C@H](O)[C@@H](C)/C=C/C=C/C=C/C=C/C=C/C=C/C=C/[C@H](O[C@@H]2O[C@H](C)[C@@H](O)[C@H](N)[C@@H]2O)C[C@@H]2O[C@](O)(C[C@@H](O)C[C@@H](O)[C@H](O)CC[C@@H](O)C[C@@H](O)CC(=O)O[C@H]1C)C[C@H](O)[C@H]2C(=O)O` [amphotericin B] displayed an ATP of 0.880.

Turning to `N=c1ccn2c(n1)O[C@H]1[C@H](O)[C@@H](CO)O[C@H]12` [ancitabine], where the note is “Conc 20 μM”, the “ATP (composite Z-score)” value is −0.629.

Under setting [1], `C=C1CC[C@@H]2[C@](C)(CO)[C@H](O)CC[C@@]2(C)[C@@H]1C/C=C1/C(=O)OC[C@H]1O` [andrographolide] came in with an ATP of 0.416.

`C[C@]12C=CC(=O)C=C1CC[C@@H]1[C@@H]2CC[C@]2(C)C(=O)CC[C@@H]12` [androsta-1,4-dien-3,17-dione] came in with an ATP under setting [3] of −0.063.

Regarding `C=C1[C@@H]2CC[C@@]3(C)[C@H](c4ccoc4)OC(=O)C[C@]13O[C@H]1CC(=O)C(C)(C)[C@H](CC(=O)OC)[C@]12C` [angolensic acid, methyl ester], under setting [2], the ATP is recorded as −0.097.

As for `COc1ccc2c(=O)c(CC(=O)O)coc2c1` [anhydrobrazilic acid, reference compound], the ATP under setting [1] is reported as −1.204.

`O[C@H]1[C@H](O)[C@@H](O)C2OC[C@H]1O2` [anhydroglucose] gave an ATP under setting [3] of 0.059.

Under setting [1], `CC1=C(/C=C/C(C)=C/C=C/C(C)=C/C=C/C=C(C)/C=C/C=C(C)/C=C/[C@@]23O[C@]2(C)C[C@@H](O)CC3(C)C)C(C)(C)C[C@H](O)C1` [antheraxanthin] showed an ATP of 0.403.

Consider `O=c1cc(-c2ccc(O)cc2)oc2cc(O[C@@H]3O[C@H](CO)[C@@H](O)[C@H](O)[C@H]3O[C@@H]3OC[C@](O)(CO)[C@H]3O)cc(O)c12` [apiin], for which, under setting [3], the ATP is −0.267.

`CN[C@@H]1[C@@H](O[C@H]2O[C@H](CO)[C@@H](N)[C@H](O)[C@H]2O)OC2C[C@@H](N)[C@@H](O[C@H]3[C@H](O)[C@@H](O)[C@H](N)C[C@@H]3N)OC2[C@@H]1O` (stereo partly drawn) [apramycin] yielded an ATP under setting [3] of 1.018.

Regarding `COC(=O)C1=CCCN(C)C1` [arecoline], the ATP under setting [5] was −0.361 and the ATP (25.78 μM, composite Z-score vs DMSO) turned out to be 1.774.

For `C[C@@H]1CC[C@H]2[C@@H](C)C(=O)O[C@@H]3O[C@@]4(C)CC[C@@H]1[C@]32OO4` [artemisinin], the ATP under setting [4] is on record as 0.737.

Under setting [3], `CCCCCC(=O)Cc1cc(O)cc(O)c1C(=O)Oc1cc(CC(=O)CCCCC)c(C(=O)O)c(OC)c1` [arthonioic acid] registered an ATP of −0.458.
